Here are results for eight molecules from PMC10400574.

Chains of the proteins cited; added tags and fusions are not shown.
UniProt Q9HAU4: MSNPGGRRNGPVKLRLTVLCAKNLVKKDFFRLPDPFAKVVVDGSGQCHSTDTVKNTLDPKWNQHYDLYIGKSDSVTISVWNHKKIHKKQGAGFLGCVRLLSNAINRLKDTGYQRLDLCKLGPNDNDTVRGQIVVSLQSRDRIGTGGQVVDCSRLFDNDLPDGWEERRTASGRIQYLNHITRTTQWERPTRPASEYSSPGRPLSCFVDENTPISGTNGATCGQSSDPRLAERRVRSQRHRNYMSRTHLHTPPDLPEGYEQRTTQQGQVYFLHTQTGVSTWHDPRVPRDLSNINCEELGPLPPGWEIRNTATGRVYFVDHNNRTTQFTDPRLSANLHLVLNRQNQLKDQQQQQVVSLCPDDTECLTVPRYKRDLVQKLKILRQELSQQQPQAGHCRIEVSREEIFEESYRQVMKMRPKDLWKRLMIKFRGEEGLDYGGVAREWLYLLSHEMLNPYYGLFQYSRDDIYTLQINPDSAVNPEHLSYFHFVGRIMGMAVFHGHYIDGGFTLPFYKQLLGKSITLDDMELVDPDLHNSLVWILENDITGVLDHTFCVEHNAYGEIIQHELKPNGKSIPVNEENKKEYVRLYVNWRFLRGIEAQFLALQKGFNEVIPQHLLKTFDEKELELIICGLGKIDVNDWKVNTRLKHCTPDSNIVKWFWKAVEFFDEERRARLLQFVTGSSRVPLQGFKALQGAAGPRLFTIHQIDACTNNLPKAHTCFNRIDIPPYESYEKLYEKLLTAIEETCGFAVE
UniProt Q9HCE7: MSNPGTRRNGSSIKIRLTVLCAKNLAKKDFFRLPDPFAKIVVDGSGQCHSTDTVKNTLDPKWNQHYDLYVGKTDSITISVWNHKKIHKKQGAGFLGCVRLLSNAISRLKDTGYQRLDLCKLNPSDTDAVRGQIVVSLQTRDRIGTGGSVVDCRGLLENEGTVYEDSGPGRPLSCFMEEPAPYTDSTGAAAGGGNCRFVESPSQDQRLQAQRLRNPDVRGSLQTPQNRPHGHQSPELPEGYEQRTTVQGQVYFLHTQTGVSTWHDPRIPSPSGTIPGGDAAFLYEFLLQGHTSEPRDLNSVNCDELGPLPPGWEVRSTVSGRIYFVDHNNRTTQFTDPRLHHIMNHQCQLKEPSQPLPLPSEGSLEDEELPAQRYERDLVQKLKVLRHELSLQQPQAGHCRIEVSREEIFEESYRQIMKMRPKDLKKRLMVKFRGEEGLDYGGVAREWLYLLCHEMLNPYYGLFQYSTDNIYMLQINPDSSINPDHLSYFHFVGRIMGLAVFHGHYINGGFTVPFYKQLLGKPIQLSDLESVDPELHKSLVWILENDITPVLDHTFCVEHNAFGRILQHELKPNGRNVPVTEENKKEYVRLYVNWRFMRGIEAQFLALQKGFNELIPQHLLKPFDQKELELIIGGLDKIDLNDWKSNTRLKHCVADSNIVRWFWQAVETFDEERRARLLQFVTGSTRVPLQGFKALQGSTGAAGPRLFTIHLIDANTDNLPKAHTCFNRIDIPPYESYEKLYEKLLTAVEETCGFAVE

Substitutions are numbered along the chain they refer to. No constants are given. Whether binding was seen depends on the method and setting. In cells and extracts the contact can be indirect. Some results given as binding are weak or reduced against the parent protein; the word gives no strength. For part of these data: Sequences can lack the tags named with a protein.

Experiment [1] deals with T1, RNF220, wild-type, full-length, Flag-tagged (mouse) (UniProt Q6PDX6).
T1 sequence: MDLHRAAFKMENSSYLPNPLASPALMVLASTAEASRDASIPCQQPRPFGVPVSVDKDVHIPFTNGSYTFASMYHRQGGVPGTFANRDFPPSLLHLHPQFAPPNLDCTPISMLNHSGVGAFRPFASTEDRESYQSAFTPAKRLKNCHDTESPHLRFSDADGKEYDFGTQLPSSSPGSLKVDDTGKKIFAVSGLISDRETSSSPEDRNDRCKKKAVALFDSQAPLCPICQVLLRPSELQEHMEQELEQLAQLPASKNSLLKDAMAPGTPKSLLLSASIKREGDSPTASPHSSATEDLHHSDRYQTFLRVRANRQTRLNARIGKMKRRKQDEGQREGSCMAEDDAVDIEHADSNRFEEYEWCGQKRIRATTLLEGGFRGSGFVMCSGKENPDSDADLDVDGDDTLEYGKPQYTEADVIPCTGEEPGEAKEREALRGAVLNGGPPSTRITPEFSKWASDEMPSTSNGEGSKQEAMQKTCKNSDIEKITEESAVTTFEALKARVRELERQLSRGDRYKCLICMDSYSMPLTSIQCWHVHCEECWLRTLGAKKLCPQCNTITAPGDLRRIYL
Description: co-IP; extracts of HEK293 cells stably transfected with RNF220-Flag; anti-Flag beads; endogenous Smurf1 or Smurf2 detected with anti-Smurf1 or anti-Smurf2; IgG as negative control.

Experiment [2] deals with T2, RNF220 in Daoy and UW228 cells (UniProt Q5VTB9).
T2 sequence: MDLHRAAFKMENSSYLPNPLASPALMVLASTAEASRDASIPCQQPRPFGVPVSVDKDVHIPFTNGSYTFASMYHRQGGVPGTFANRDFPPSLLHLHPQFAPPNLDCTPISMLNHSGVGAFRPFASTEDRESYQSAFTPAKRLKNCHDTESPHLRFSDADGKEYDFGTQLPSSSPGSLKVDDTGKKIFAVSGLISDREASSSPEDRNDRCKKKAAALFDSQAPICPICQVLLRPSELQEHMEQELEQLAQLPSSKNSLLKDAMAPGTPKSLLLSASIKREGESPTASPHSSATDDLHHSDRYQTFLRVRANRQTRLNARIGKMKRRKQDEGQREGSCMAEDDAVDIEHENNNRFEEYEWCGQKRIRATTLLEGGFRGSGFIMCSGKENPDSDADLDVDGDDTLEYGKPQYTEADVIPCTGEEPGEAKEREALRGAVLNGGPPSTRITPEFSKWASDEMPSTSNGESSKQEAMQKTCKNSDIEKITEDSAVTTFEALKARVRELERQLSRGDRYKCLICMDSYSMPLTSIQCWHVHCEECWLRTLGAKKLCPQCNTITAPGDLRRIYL
Description: co-IP; in vivo co-IP in Daoy and UW228 cells (Supplementary Fig. 2); bait not told.

The target of experiment [3] is T3, RNF220 fragment containing the N-terminal 330 amino acids (mouse) (UniProt Q6PDX6).
T3 sequence: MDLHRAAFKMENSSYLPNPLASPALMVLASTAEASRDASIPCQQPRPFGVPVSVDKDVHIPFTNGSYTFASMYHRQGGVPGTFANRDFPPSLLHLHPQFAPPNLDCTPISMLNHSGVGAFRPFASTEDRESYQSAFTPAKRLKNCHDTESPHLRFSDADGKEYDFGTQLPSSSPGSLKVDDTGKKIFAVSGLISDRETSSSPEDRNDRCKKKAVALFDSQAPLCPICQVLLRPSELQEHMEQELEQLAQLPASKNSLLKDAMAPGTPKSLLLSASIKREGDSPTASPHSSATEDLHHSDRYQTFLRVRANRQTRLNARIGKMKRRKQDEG
The experiment can be described thus: co-IP; HEK293 cells transiently cotransfected; lysis in 50 mM Tris-HCl pH 7.5, 150 mM NaCl, 1% Triton X-100; lysates incubated with anti-Flag beads, Western blot.

In experiment [4] the target is T4, RNF220 S282/286A mutant, full-length (mouse) (UniProt Q6PDX6).
T4 sequence: T1 sequence with S282A, S286A
The description is as above.

The target of experiment [5] is T5, RNF220 with the N-terminal 240 amino acids deleted (mouse) (UniProt Q6PDX6).
T5 sequence: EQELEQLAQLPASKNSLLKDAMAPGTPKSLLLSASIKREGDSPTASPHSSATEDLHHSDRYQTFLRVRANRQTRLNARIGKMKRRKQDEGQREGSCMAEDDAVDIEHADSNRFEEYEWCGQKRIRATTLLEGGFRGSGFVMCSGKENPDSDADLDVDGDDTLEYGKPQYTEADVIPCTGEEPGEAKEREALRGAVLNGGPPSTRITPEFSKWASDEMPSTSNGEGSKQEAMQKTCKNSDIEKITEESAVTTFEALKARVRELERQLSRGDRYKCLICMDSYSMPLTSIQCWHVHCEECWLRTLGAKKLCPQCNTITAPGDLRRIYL
The description is as above.

Experiment [6] concerns the target T1, RNF220, wild-type, full-length, Flag-tagged (mouse). Described as above.
The target in experiment [7] is T6, RNF220 fragment containing the N-terminal 240 amino acids (mouse) (UniProt Q6PDX6).
T6 sequence: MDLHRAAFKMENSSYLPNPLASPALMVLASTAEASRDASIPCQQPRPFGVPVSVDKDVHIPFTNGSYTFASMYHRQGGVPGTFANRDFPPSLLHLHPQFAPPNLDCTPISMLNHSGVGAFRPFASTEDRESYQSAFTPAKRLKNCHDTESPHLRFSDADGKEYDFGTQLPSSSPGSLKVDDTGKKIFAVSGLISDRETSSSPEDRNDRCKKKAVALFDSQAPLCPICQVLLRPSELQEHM
The description is as above.

Experiment [8] concerns the target Endogenous Smurf2 (HEK293) (human (endogenous in HEK293)) (UniProt Q9HAU4). Description: co-IP; endogenous proteins of HEK293 cell extracts; precipitated with antibody against Smurf1 or Smurf2, RNF220 detected with anti-RNF220; IgG as negative control.
For experiment [9], the target named is Endogenous Smurf1 (HEK293) (human (endogenous in HEK293)) (UniProt Q9HCE7). Described as above.
In experiment [10] the target is Smurf2, wild-type, transfected, precipitated with anti-Flag beads (human) (UniProt Q9HAU4). Description: co-IP; HEK293 cells transiently cotransfected; lysis in 50 mM Tris-HCl pH 7.5, 150 mM NaCl, 1% Triton X-100; lysates incubated with anti-Flag beads, Western blot. In general terms: A western blot detects proteins with antibodies after separation by electrophoresis.

The target of experiment [11] is Smurf1, wild-type, transfected, precipitated with anti-Flag beads (human) (UniProt Q9HCE7). The experiment is described as above.

For “Endogenous Smurf1 (HEK293) (from UniProt Q9HCE7 1-757) (enzyme)”, the binding entry in experiment [1] was “binds”.
The same measure, in the same setting: the value for “Endogenous Smurf2 (HEK293) (from UniProt Q9HAU4 1-748) (enzyme)” was “binds”.
“Smurf1 in Daoy and UW228 cells (from UniProt Q9HCE7 1-757) (enzyme)”: the binding entry in [2] is “binds”.
Take “Smurf1, wild-type, transfected (prey of Flag-RNF220) (from UniProt Q9HCE7 1-757) (enzyme)”: the binding entry in experiment [3] is “binds”; in experiment [4], “no binding”; in experiment [5], “binds”; in experiment [6] it was “binds”; in [7] it was “no binding”.
As to “Smurf2 in Daoy and UW228 cells (from UniProt Q9HAU4 1-748) (enzyme)”, the binding result in [2] is listed as “binds”.
In the case of “Smurf2, wild-type, transfected (prey of Flag-RNF220) (from UniProt Q9HAU4 1-748) (enzyme)”, the binding result is listed as “binds” in experiment [3]; “no binding” in experiment [4]; “binds” in experiment [5]; “binds” in experiment [6]; “no binding” in experiment [7].

B1: Endogenous RNF220 (HEK293) (protein, UniProt Q5VTB9 1-566)
chain: T2 sequence
Take B1: the binding result in experiment [8] and in experiment [9] was “binds” throughout.

B2: RNF220, wild-type, transfected (prey of Flag-tagged Smurf1 or Smurf2) (protein, UniProt Q6PDX6 1-566)
chain: T1 sequence
As to B2, the binding result in [10] and in experiment [11] was “binds” each time.
